In the supplement of paper PMC10126150 one finds switch fluorescence ratio data, which are given here for 79 sequences.

Values marked as one replicate rest on one cluster of the flow cell; about a third of the high ones do not repeat.

The test system of the series is ATP. In words: switch fluorescence ratio, 500 uM ATP over buffer (Cy3 cluster intensity, sum of 5 cycles each) (fold (ratio)); higher = stronger signal-on switching upon ATP binding; sequences stand for … in TCGTCGGCAGCGTCAGATGTGTATAAGAGACAGTTTTTTTTTTTTTTTTTTTTTTTTT…TC. Conditions: aptamer strand: ATP DNA aptamer (quencher-CACCTGGGGGAGTATTGCGGAGGAAGG + anchor), 100 nM annealed; ATP concentration: 500 uM; one replicate. The method, boiled down: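 Imaging in selection buffer was followed by imaging after 15 min with 500 uM ATP at 22 °C, for Cy3-labelled switching-strand clusters annealed to 100 nM quencher-labelled ATP aptamer on a modified Illumina MiSeq flow-cell. Five of these buffer/ATP cycles ran, separated by NaOH stripping and re-annealing. The fluorescence ratio per cluster is summed target-cycle over summed buffer-cycle Cy3 intensity, averaged per switch-domain sequence; clusters outside 100-1000 RFU were removed.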
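Note: ATP exposure 15 min at 22 °C before imaging.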

As for TGCAGTAGCA, the switch fluorescence ratio was determined as 1.
Consider TGGTTTGCG, for which the switch fluorescence ratio was 1.
Consider GCTCTCTTGA, for which the switch fluorescence ratio was found to be 1.02.
Under TACGTAATT stands 1.2; under TCGAGGCTCC, 1; under TACGTGTTCG, 1.02.
As to ACATCACGTA, the switch fluorescence ratio was 1.61.
The result for TTGGGATTGA reads 1.
The result for CAGTGAAGGG reads 1.01; that for CCATGAGCGC, 0.929; that for GAGGGTTATC, 0.997.
On to GCTTGCTGGT, for which the switch fluorescence ratio turned out to be 0.967.
Turning to AGTACCCCTT, the switch fluorescence ratio is 1.04.
Under ATGTATTG stands 0.981; under GGGCTTTTAC, 1.11; under CGATAAGGT, 0.998.
Under AGTGCAGGCG stands 0.942; under GCCCTTCGTT, 0.976.
GATATCGCAC: the switch fluorescence ratio worked out at 1.28.
The result for CGAGAAAATT reads 1.3; that for TCTAACAGCG, 1.02; that for GAGAACTTAT, 0.986.
The result for ATACAAGCTA reads 1.02.
TAAAGCCTTC: the switch fluorescence ratio was 1.31.
Under AACAAGGAAG stands 1.01; under ACAAGAACA, 1.05.
As to GTGGCGACGG, the switch fluorescence ratio was 1.06.
Under CCGGTTATGT stands 1.19; under TCGGGCTGAA, 0.978; under TGCCCGTAGG, 1.04.
Under TATAGAATTC stands 1.04; under CGGAATCGGT, 0.966; under CGGCACGCAC, 1.77.
As for GACATTCCCC, the switch fluorescence ratio was determined as 1.18.
As for GTAAACATTC, the switch fluorescence ratio is 1.15.
The result for ATTGACCACG reads 0.975; that for AAACAAATTA, 0.991.
The result for TAATGTTACC reads 1.04; that for ACCGAGCCCT, 1.04.
For the sequence GCGAATATAT, the switch fluorescence ratio was determined as 1.03.
Take TTTAACTGTA: the switch fluorescence ratio amounted to 0.962.
With GATTGAAGCG, the switch fluorescence ratio was 0.992.
The result for CTCTGTCTGT reads 1.15.
With GAGTGAATG, the switch fluorescence ratio came to 0.963.
The result for GAACGCCCTG reads 1.01; that for GTCTGAATTT, 0.994; that for CAGAGCCTAC, 1.35.
Under TCGTGTTGGG stands 0.998.
The result for TTTAGTGTT reads 0.934.
On to GTGACTAAAC, for which the switch fluorescence ratio came to 1.01.
Under GTTGCGCAAT stands 1.39; under ACGGGTTGTA, 0.977.
Under ACCCCATTTG stands 1.19.
CGCTATACCT: the switch fluorescence ratio came to 3.02.
For the sequence TGTGATAGG, the switch fluorescence ratio was 0.989.
Turning to CTTGGTGATG, the switch fluorescence ratio was 1.03.
The result for CTTGCTTGGG reads 0.972; that for TGTAAGCTTG, 0.955.
The result for GAACCAAGCA reads 1.06; that for ATGCGGGGAC, 1.04; that for GAATGCGTGT, 1.09.
The result for ATGGCAGTAA reads 1.04; that for TCATACCGCA, 3.1.
Regarding CCTTAAGAGG, the switch fluorescence ratio was found to be 1.02.
As for TGCGTGATCA, the switch fluorescence ratio came out at 0.993.
Turning to GGCAAAGTTT, the switch fluorescence ratio stood at 1.02.
The result for GTATTAAATT reads 0.987; that for ATAAAGCCAG, 0.935.
As to AGCTCTACTC, the switch fluorescence ratio amounted to 2.04.
With AAGAGTAACT, the switch fluorescence ratio was 1.02.
Under TTCATAAGA stands 1.02; under CAGGCGGAGG, 1.01.
Under CGTAAAGAGT stands 1.06.
As to GTAATAAGTA, the switch fluorescence ratio came out at 1.01.
Under AAACTACTTC stands 1.25; under TTGTTTCTCG, 1.02.
Under ATGTGTCGAA stands 1.01; under TTGGTGCGAG, 0.974; under ACATGTCTCC, 1.11.
